# Source: the supplement of paper PMC3334620
# Over roughly 33,000 sequences, “E-score (-0.5 to 0.5)” has its median near -0.013; the highest 2% begin near 0.3. The list shows a part of the results.
# Target: T1, Msn1 (UniProt P22148)
# T1 sequence: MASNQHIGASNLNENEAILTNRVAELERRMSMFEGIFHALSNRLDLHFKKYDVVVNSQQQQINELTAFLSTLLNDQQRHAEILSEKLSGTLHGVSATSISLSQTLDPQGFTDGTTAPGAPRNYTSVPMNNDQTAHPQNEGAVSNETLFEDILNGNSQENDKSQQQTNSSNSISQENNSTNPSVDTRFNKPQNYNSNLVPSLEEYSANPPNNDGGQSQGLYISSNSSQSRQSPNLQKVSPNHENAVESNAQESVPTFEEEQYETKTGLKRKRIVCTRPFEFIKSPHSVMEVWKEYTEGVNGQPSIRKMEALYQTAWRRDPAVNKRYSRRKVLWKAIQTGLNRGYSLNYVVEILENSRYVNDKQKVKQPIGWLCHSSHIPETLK
# Assay: PBM E-score (8-mer binding enrichment) (E-score (-0.5 to 0.5)); higher = stronger / more preferred TF binding; most listed sequences are background and not binding sites
# Conditions: protein concentration: 200 nM; construct: GST-full length
# Procedure, shortened: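 Using PURExpress in vitro transcription/translation, GST-tagged yeast transcription factors were made in full-length or DNA-binding-domain form. These were applied at about 100-200 nM to double-stranded universal all-10-mer Agilent arrays, and bound protein was detected with fluorescent anti-GST. Scans were normalised with masliner before the Universal PBM Analysis Suite assigned E-scores to ungapped eight-base words pooled with their reverse complements.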
row,Sequence,PBM E-score
1,CCCGCGGC,0.057
2,CCCTCAGC,-0.166
3,AAATCACG,-0.0181
4,AGCCCCGG,-0.0483
5,GGCCTCAA,-0.0718
6,CTCCAAGC,-0.0605
7,GGGCGCGA,0.0277
8,AGAGGAAG,-0.202
9,CATACATG,0.23
10,ATGTTACG,0.0808
11,ACTCGCAA,-0.0152
12,CAGCCTCC,-0.357
13,ACGCCCGG,-0.113
14,GGGTTTTA,-0.0678
15,CGGGGCTA,-0.274
16,AAGTCTTG,0.0419
17,CTTTACTC,-0.00893
18,ATAAAGTA,0.243
19,AAAAGCTA,-0.0112
20,CACCCTCA,-0.215
21,AGTACCCA,-0.0741
22,TCCTTAAA,0.134
23,CTGCTCCC,-0.16
24,AGGAATTG,0.105
25,GGCCGCGA,-0.0211

row,Sequence,PBM E-score
1,CCGAGTAG,0.0326
2,ATCCCGGG,0.0417
3,CAGCTGAA,0.022
4,CGCACAAC,-0.14
5,TCTTCACA,0.208
6,ATCTCCGA,0.206
7,GTGATATA,-0.167
8,CACCTAGC,-0.116
9,ACTGAGTC,0.101
10,ATGAAGCC,0.00088
11,ACTAACCT,-0.0635
12,CTATACCC,-0.113
13,CTTACCAA,0.0535
14,TGTCACAA,0.378
15,CCAACACG,-0.144
16,GCCTGTCC,0.153
17,CGGACGAG,0.0588
18,GTACCGCA,0.0295
19,AATGAATA,-0.0334
20,GATGCTGA,-0.264
21,ACGGAAAG,0.174
22,GACGCTAC,-0.115
23,ACGACCCC,-0.273
24,CTACTAGC,0.00983
25,GGCCCCCA,-0.442

row,Sequence,PBM E-score
1,ACTCAAAC,0.145
2,GACTTACC,0.103
3,CTCAGCGC,-0.102
4,AACAATTG,0.116
5,GGGGGGTA,-0.0806
6,CAGATGAC,-0.0534
7,AACGGCAT,0.144
8,ACAACAGT,0.165
9,GCAACGGA,0.168
10,CAGTACCG,0.0766
11,TAAGCAAA,0.0285
12,GTTTGAGA,0.0155
13,CGTAGAAC,-0.119
14,ATAGAAGC,0.144
15,ACAATCTC,0.0114
16,AACTCACC,-0.253
17,GACGTTTA,0.164
18,CTGTCTAC,-0.0627
19,GAAAAATC,0.136
20,AGGATGTA,-0.0489
21,ACTGGCCG,-0.185
22,AAAATCGG,0.052
23,ACCTGTAT,-0.108
24,GTCCTGGA,0.265
25,CCGCGTTC,-0.0241

row,Sequence,PBM E-score
1,GACGATGA,-0.00724
2,CAGGGGGC,-0.419
3,AGCGGTAG,-0.115
4,GCCCGCGA,-0.0477
5,CATATCGG,0.0952
6,AGTTCCCA,0.0695
7,ACAGGTGA,-0.0906
8,AGGGTCCG,-0.204
9,CTTCTCCA,-0.166
10,CAAATATA,0.159
11,CAGGACGC,0.00853
12,TGTGTCAA,0.0135
13,CGCGATGC,-0.247
14,CAGGTCGA,-0.00157
15,ACGAAACC,0.0241
16,AACTCGTC,0.0439
17,ACTTCTCG,0.103
18,AAGACTGT,-0.113
19,GGATTCGA,-0.0658
20,AAGTTGAG,0.055
21,AGAAAAAA,0.169
22,ATCCTTGG,0.0526
23,CCATTTAA,0.057
24,CACTCAGC,-0.133
25,GCACCGAA,0.0642

row,Sequence,PBM E-score
1,AATTCGAG,0.114
2,AGGGGCAA,-0.174
3,AAGTGATG,-0.0462
4,AGTGTTGA,0.047
5,ATCCATTC,0.0746
6,AAAGCGAA,0.0314
7,CATTGGGG,-0.125
8,CAGGGTTC,-0.0341
9,AGTCTAGG,-0.217
10,CGTACTGC,0.0272
11,GGTATTAC,0.0172
12,GGGACCGA,0.0171
13,AAACAAGG,-0.141
14,AATACCCA,-0.0704
15,GTAAGACA,0.305
16,TATTTAAA,0.136
17,AGTTCCAA,0.0681
18,AATTGCAC,-0.0279
19,CGCATGCA,0.0245
20,AGGCCGTA,-0.0196
21,AGCGGTGA,-0.0747
22,AGTAATAA,0.155
23,ACTAAGAG,0.0641
24,CAGAACAG,-0.239
25,GATTTCGA,-0.0823

row,Sequence,PBM E-score
1,GAAATGCC,0.00283
2,AGAAAGAC,-0.00893
3,AATAGTGC,-0.00646
4,CAGTACAC,0.252
5,CTACATCC,-0.0147
6,CATAAGTC,0.264
7,CCCCAACC,-0.085
8,GGACGTCC,0.263
9,CCCGGGAG,-0.147
10,GACCAATC,0.0895
11,ACTGCTCT,0.0249
12,GTACTGCA,0.0551
13,GTGTCAGA,0.232
14,GACGTGCC,-0.23
15,TCCCTGCA,-0.0437
16,GTTGAGAA,-0.0356
17,ATTAACGG,0.0729
18,ATGGCCTA,0.00251
19,AGGGGGTC,-0.332
20,CTATGCAG,0.0179
21,AAAATTGT,0.357
22,AAGAGGAT,-0.127
23,ACAAGATC,0.0398
24,GAGGGCAA,-0.129
25,TACTGGCA,-0.118

row,Sequence,PBM E-score
1,AACCTACA,0.0149
2,CACCTAGA,-0.147
3,TACTCGGA,0.223
4,ATGCGACG,-0.249
5,AGTCATTC,0.00351
6,AGGAACAC,0.0604
7,CTTACGAA,0.0988
8,AGGTAGTA,-0.056
9,ACGCAGCG,-0.285
10,CAGCCCGA,-0.173
11,ATTCATCA,-0.0736
12,ACAGCCAG,-0.0522
13,ACTCTTCC,-0.113
14,CGATGGAA,-0.137
15,AACACTGG,-0.0304
16,ACGCGGCC,-0.0902
17,CGGAAGGC,-0.115
18,GAAGACCA,-0.102
19,ATAAGAGC,0.0327
20,GAGTAGAA,-0.0105
21,AGCCGTAA,-0.00403
22,CCTGCTAA,-0.206
